Measured values published in patent US20250304706A1 (Astellas, published 2025).

biological target: T1, CD3εδ complex protein (human; alpaca, UniProt P07766 23-126; P04234 22-105); assay: ELISA, CD3 complex immobilized
T1 construct: they are not part of the secreted protein; also called human CD3; CD386 complex protein
Experimental: Binding activities of the anti-TSPAN8/anti-CD3 bispecific antibodies BTE-0001 to BTE-0067 to CD3 were evaluated by the ELISA. ELISA was performed according to a conventional method. The […] complex protein obtained in Example 1-3 was immobilized on a plate. BTE-0001 to BTE-0067 were used as the test antibodies. As a secondary antibody, Goat anti-Human IgG Fc, Multi-Species SP ads-HRP (2014-05, available from SouthernBiotech) was used. TMB+Substrate-Chromogen (S1599, available from Dako) was used as the detection reagent. Infinite M200pro (available from Tecan) was used to measure the absorbance. The EC50 values were calculated using variable slope model (four parameters) in GraphPad Prism with the maximum value in the same plate fixed at the top and the minimum value in the blank in the same plate fixed at the bottom. Since BTE-0001 was always measured in each plate as a control, only the EC50 value of BTE-0001 was expressed as the average value of a plurality of plates.
Binding activities of the 66 anti-TSPAN8/anti-CD3 bispecific antibodies to CD3 were evaluated by the ELISA described in Example 1-4.

UniProt P07766, sequence (P07766 23-126 limits assumed, stated change not applied, form in doubt, chain 1 of 2): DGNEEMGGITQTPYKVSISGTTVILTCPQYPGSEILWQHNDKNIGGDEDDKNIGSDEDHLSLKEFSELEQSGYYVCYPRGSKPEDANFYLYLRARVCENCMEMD
UniProt P07766, sequence (P04234 22-105 limits assumed, stated change not applied, form in doubt, chain 2 of 2, further chain): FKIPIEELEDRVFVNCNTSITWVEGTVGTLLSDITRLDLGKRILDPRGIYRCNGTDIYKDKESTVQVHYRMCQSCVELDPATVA

Binder | EC50
BTE-0104 (bispecific antibody) chain 1: QVQLVESGGGVVQPGGSLRLSCAASGFTFSSYGMHWVRQAPGKGLEWVAVIWYDGRNKYYADSVKGRFTISRDNSKNTLYLQMNSLRAEDTAVYYCTRDHSGSGSYYIDYWGQGTLVTVSSASTKGPSVFPLAPSSKSTSGGTAALGCLVKDYFPEPVTVSWNSGALTSGVHTFPAVLQSSGLYSLSSVVTVPSSSLGTQTYICNVNHKPSNTKVDKKVEPKSCDKTHTCPPCPAPEAAGGPSVFLFPPKPKDTLMISRTPEVTCVVVDVSHEDPEVKFNWYVDGVEVHNAKTKPREEQYNSTYRVVSVLTVLHQDWLNGKEYKCKVSNKALAAPIEKTISKAKGQPREPQVYTLPPSRDELTKNQVSLSCAVKGFYPSDIAVEWESNGQPENNYKTTPPVLDSDGSFFLVSKLTVDKSRWQQGNVFSCSVMHEALHNHYTQKSLSLSPGK chain 2: EIAMTQSPATLSVSPGERATLSCRASQSVSSNLAWYQQKPGQAPRLLIYGASTRATGLPARFSGSGSGTEFTLTISSLQSEDFAVYYCQQYNNFWTFGQGTKVEIKRTVAAPSVFIFPPSDEQLKSGTASVVCLLNNFYPREAKVQWKVDNALQSGNSQESVTEQDSKDSTYSLSSTLTLSKADYEKHKVYACEVTHQGLSSPVTKSFNRGEC chain 3: EVQLVESGGGLIQPGGSLRLSCAASGFTFNTYAMSWVRQAPGKGLEWVARIRSKYNNYATYYADSVKDRFTISRDDSKSTLYLQMNNLRAEDTAVYYCVRHGNFGNSYVSWFAYWGQGTLVTVSSGKPGSGKPGSGKPGSGKPGSQAVVTQEPSLTVSPGGTVTLTCRSSTGAVTTSNYANWVQQKPGQAPRGLIGGTNKRAPGTPARFSGSLLGDKAALTLSGAQPEDEADYYCALWYSNLWVFGGGTKVTVL[human IgG1 Fc with C220S L234A L235A P329A T366W (EU numbers) cut from this listing] | 0.499 µg/mL
BTE-0108 (bispecific antibody) chain 1: QVQLVESGGGVVQPGGSLRLSCAASGFTFSSYGMHWVRQAPGKGLEWVAVIWYDGRNKYYADSVKGRFTISRDNSKNTLYLQMNSLRAEDTAVYYCTRDHSGSGSYYIDYWGQGTLVTVSSASTKGPSVFPLAPSSKSTSGGTAALGCLVKDYFPEPVTVSWNSGALTSGVHTFPAVLQSSGLYSLSSVVTVPSSSLGTQTYICNVNHKPSNTKVDKKVEPKSCDKTHTCPPCPAPEAAGGPSVFLFPPKPKDTLMISRTPEVTCVVVDVSHEDPEVKFNWYVDGVEVHNAKTKPREEQYNSTYRVVSVLTVLHQDWLNGKEYKCKVSNKALAAPIEKTISKAKGQPREPQVYTLPPSRDELTKNQVSLSCAVKGFYPSDIAVEWESNGQPENNYKTTPPVLDSDGSFFLVSKLTVDKSRWQQGNVFSCSVMHEALHNHYTQKSLSLSPGK chain 2: EIAMTQSPATLSVSPGERATLSCRASQSVSSNLAWYQQKPGQAPRLLIYGASTRATGLPARFSGSGSGTEFTLTISSLQSEDFAVYYCQQYNNFWTFGQGTKVEIKRTVAAPSVFIFPPSDEQLKSGTASVVCLLNNFYPREAKVQWKVDNALQSGNSQESVTEQDSKDSTYSLSSTLTLSKADYEKHKVYACEVTHQGLSSPVTKSFNRGEC chain 3: EVQLVESGGGLIQPGGSLRLSCAASGFTFNTYAMNWVRQAPGKGLEWVARIRSKANNYATYYADSVKDRFTISRDDSKSTLYLQMNNLRAEDTAVYYCVRHGNFGNSYVSWFAYWGQGTLVTVSSGKPGSGKPGSGKPGSGKPGSQAVVTQEPSLTVSPGGTVTLTCRSSTGAVTTSNYANWVQQKPGQAPRGLIGGTNKRAPGTPARFSGSLLGDKAALTLSGAQPEDEADYYCALWYSNLWVFGGGTKVTVL[human IgG1 Fc with C220S L234A L235A P329A T366W (EU numbers) cut from this listing] | 0.00831 µg/mL
BTE-0109 (bispecific antibody) chain 1: QVQLVESGGGVVQPGGSLRLSCAASGFTFSSYGMHWVRQAPGKGLEWVAVIWYDGRNKYYADSVKGRFTISRDNSKNTLYLQMNSLRAEDTAVYYCTRDHSGSGSYYIDYWGQGTLVTVSSASTKGPSVFPLAPSSKSTSGGTAALGCLVKDYFPEPVTVSWNSGALTSGVHTFPAVLQSSGLYSLSSVVTVPSSSLGTQTYICNVNHKPSNTKVDKKVEPKSCDKTHTCPPCPAPEAAGGPSVFLFPPKPKDTLMISRTPEVTCVVVDVSHEDPEVKFNWYVDGVEVHNAKTKPREEQYNSTYRVVSVLTVLHQDWLNGKEYKCKVSNKALAAPIEKTISKAKGQPREPQVYTLPPSRDELTKNQVSLSCAVKGFYPSDIAVEWESNGQPENNYKTTPPVLDSDGSFFLVSKLTVDKSRWQQGNVFSCSVMHEALHNHYTQKSLSLSPGK chain 2: EIAMTQSPATLSVSPGERATLSCRASQSVSSNLAWYQQKPGQAPRLLIYGASTRATGLPARFSGSGSGTEFTLTISSLQSEDFAVYYCQQYNNFWTFGQGTKVEIKRTVAAPSVFIFPPSDEQLKSGTASVVCLLNNFYPREAKVQWKVDNALQSGNSQESVTEQDSKDSTYSLSSTLTLSKADYEKHKVYACEVTHQGLSSPVTKSFNRGEC chain 3: EVQLVESGGGLIQPGGSLRLSCAASGFTFNTYAMNWVRQAPGKGLEWVARIRSKYNNYATEYADSVKDRFTISRDDSKSTLYLQMNNLRAEDTAVYYCVRHGNFGNSYVSWFAYWGQGTLVTVSSGKPGSGKPGSGKPGSGKPGSQAVVTQEPSLTVSPGGTVTLTCRSSTGAVTTSNYANWVQQKPGQAPRGLIGGTNKRAPGTPARFSGSLLGDKAALTLSGAQPEDEADYYCALWYSNLWVFGGGTKVTVL[human IgG1 Fc with C220S L234A L235A P329A T366W (EU numbers) cut from this listing] | 0.217 µg/mL
BTE-0110 (bispecific antibody) chain 1: QVQLVESGGGVVQPGGSLRLSCAASGFTFSSYGMHWVRQAPGKGLEWVAVIWYDGRNKYYADSVKGRFTISRDNSKNTLYLQMNSLRAEDTAVYYCTRDHSGSGSYYIDYWGQGTLVTVSSASTKGPSVFPLAPSSKSTSGGTAALGCLVKDYFPEPVTVSWNSGALTSGVHTFPAVLQSSGLYSLSSVVTVPSSSLGTQTYICNVNHKPSNTKVDKKVEPKSCDKTHTCPPCPAPEAAGGPSVFLFPPKPKDTLMISRTPEVTCVVVDVSHEDPEVKFNWYVDGVEVHNAKTKPREEQYNSTYRVVSVLTVLHQDWLNGKEYKCKVSNKALAAPIEKTISKAKGQPREPQVYTLPPSRDELTKNQVSLSCAVKGFYPSDIAVEWESNGQPENNYKTTPPVLDSDGSFFLVSKLTVDKSRWQQGNVFSCSVMHEALHNHYTQKSLSLSPGK chain 2: EIAMTQSPATLSVSPGERATLSCRASQSVSSNLAWYQQKPGQAPRLLIYGASTRATGLPARFSGSGSGTEFTLTISSLQSEDFAVYYCQQYNNFWTFGQGTKVEIKRTVAAPSVFIFPPSDEQLKSGTASVVCLLNNFYPREAKVQWKVDNALQSGNSQESVTEQDSKDSTYSLSSTLTLSKADYEKHKVYACEVTHQGLSSPVTKSFNRGEC chain 3: EVQLVESGGGLIQPGGSLRLSCAASGFTFNTYAMNWVRQAPGKGLEWVARIRSKYNNYATSYADSVKDRFTISRDDSKSTLYLQMNNLRAEDTAVYYCVRHGNFGNSYVSWFAYWGQGTLVTVSSGKPGSGKPGSGKPGSGKPGSQAVVTQEPSLTVSPGGTVTLTCRSSTGAVTTSNYANWVQQKPGQAPRGLIGGTNKRAPGTPARFSGSLLGDKAALTLSGAQPEDEADYYCALWYSNLWVFGGGTKVTVL[human IgG1 Fc with C220S L234A L235A P329A T366W (EU numbers) cut from this listing] | 0.0471 µg/mL
BTE-0114 (bispecific antibody) chain 1: QVQLVESGGGVVQPGGSLRLSCAASGFTFSSYGMHWVRQAPGKGLEWVAVIWYDGRNKYYADSVKGRFTISRDNSKNTLYLQMNSLRAEDTAVYYCTRDHSGSGSYYIDYWGQGTLVTVSSASTKGPSVFPLAPSSKSTSGGTAALGCLVKDYFPEPVTVSWNSGALTSGVHTFPAVLQSSGLYSLSSVVTVPSSSLGTQTYICNVNHKPSNTKVDKKVEPKSCDKTHTCPPCPAPEAAGGPSVFLFPPKPKDTLMISRTPEVTCVVVDVSHEDPEVKFNWYVDGVEVHNAKTKPREEQYNSTYRVVSVLTVLHQDWLNGKEYKCKVSNKALAAPIEKTISKAKGQPREPQVYTLPPSRDELTKNQVSLSCAVKGFYPSDIAVEWESNGQPENNYKTTPPVLDSDGSFFLVSKLTVDKSRWQQGNVFSCSVMHEALHNHYTQKSLSLSPGK chain 2: EIAMTQSPATLSVSPGERATLSCRASQSVSSNLAWYQQKPGQAPRLLIYGASTRATGLPARFSGSGSGTEFTLTISSLQSEDFAVYYCQQYNNFWTFGQGTKVEIKRTVAAPSVFIFPPSDEQLKSGTASVVCLLNNFYPREAKVQWKVDNALQSGNSQESVTEQDSKDSTYSLSSTLTLSKADYEKHKVYACEVTHQGLSSPVTKSFNRGEC chain 3: EVQLVESGGGLIQPGGSLRLSCAASGFTFSDHAMNWVRQAPGKGLEWVARIRSKYNNYATYYADSVKDRFTISRDDSKSTLYLQMNNLRAEDTAVYYCVRHGNFGNSYVSWFAYWGQGTLVTVSSGKPGSGKPGSGKPGSGKPGSQAVVTQEPSLTVSPGGTVTLTCRSSTGAVTTSNYANWVQQKPGQAPRGLIGGTNKRAPGTPARFSGSLLGDKAALTLSGAQPEDEAEYYCALWYSNHWVFGGGTKVTVL[human IgG1 Fc with C220S L234A L235A P329A T366W (EU numbers) cut from this listing] | 0.086 µg/mL
